Laboratory results as given in publication PMC12820563, “FoxP3 forms a head-to-head dimer in vivo and stabilizes its multimerization on adjacent microsatellites”.
The other results are listed elsewhere or left out.

Target: T1, MBP-FoxP1dN (Mus musculus, UniProt P58462 326-579)
T1 sequence: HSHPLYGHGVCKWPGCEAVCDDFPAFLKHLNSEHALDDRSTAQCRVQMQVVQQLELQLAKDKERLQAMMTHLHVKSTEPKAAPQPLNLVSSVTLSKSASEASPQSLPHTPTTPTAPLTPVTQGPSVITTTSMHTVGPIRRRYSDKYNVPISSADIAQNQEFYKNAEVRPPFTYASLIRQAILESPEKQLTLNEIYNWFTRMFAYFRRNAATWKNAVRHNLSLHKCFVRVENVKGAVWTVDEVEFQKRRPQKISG
Assay: PD-seq (MBP pull-down with sequencing); 20 mM Tris-HCl pH 7.5, 100 mM NaCl, 1.5 mM MgCl2, 0.4 uM protein, 0.1 uM dsDNA library, 30 min, room temperature, amylose pull-down; high values mean tight binding
Conditions: protein: recombinant; tags: His6-MBP; chain copies: 2; dsDNA, one strand shown
How it was run: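 In Tris pH 7.5 buffer with NaCl and MgCl2, 0.4 µM His6-MBP-tagged mouse FoxP3 or FoxP1 fragment lacking the N-terminus, from E. coli, met 0.1 µM Klenow-filled double-stranded degenerate DNA library for 30 min at room temperature. Three washes on amylose resin followed capture of the complexes, then proteinase K release of DNA, PCR barcoding and Illumina sequencing. Binding is taken as pooled-replicate reads-per-million enrichment of pull-down relative to input.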

Sequence | binding signal
GATGATTGTTCTCCCAGCTGATGAATTCGCCGCCTCGAGTAAACAAATTTTCCTAATCTTTCTGTTCAAGCGCCATCTAC | 0.826 RPM ratio (pull-down/input)
GATGATTGTTCTCCCAGCTGATGAATTTGTAGCTTCGAGTAAACAAATTTTCCTAATCTTTCTGTTCAAGCGCCATCTAC | 1.07 RPM ratio (pull-down/input)
GATGATTGTTCTCCCAGCTGATGAATTCAGGCTTTCGAGTAAACAAATTTTCCTAATCTTTCTGTTCAAGCGCCATCTAC | 0.856 RPM ratio (pull-down/input)
GATGATTGTTCTCCCAGCTGATGAATTGGTGTTGTCGAGTAAACAAATTTTCCTAATCTTTCTGTTCAAGCGCCATCTAC | 2.78 RPM ratio (pull-down/input)
GATGATTGTTCTCCCAGCTGATGAATTAATGGCTTCGAGTAAACAAATTTTCCTAATCTTTCTGTTCAAGCGCCATCTAC | 0.902 RPM ratio (pull-down/input)
GATGATTGTTCTCCCAGCTGATGAATTTTGAGGATCGAGTAAACAAATTTTCCTAATCTTTCTGTTCAAGCGCCATCTAC | 0.856 RPM ratio (pull-down/input)
GATGATTGTTCTCCCAGCTGATGAATTTCCGCTCTCGAGTAAACAAATTTTCCTAATCTTTCTGTTCAAGCGCCATCTAC | 0.747 RPM ratio (pull-down/input)
GATGATTGTTCTCCCAGCTGATGAATTGGCAACTTCGAGTAAACAAATTTTCCTAATCTTTCTGTTCAAGCGCCATCTAC | 0.976 RPM ratio (pull-down/input)
GATGATTGTTCTCCCAGCTGATGAATTATTATGCTCGAGTAAACAAATTTTCCTAATCTTTCTGTTCAAGCGCCATCTAC | 1.24 RPM ratio (pull-down/input)
GATGATTGTTCTCCCAGCTGATGAATTCAGCACGTCGAGTAAACAAATTTTCCTAATCTTTCTGTTCAAGCGCCATCTAC | 0.901 RPM ratio (pull-down/input)
GATGATTGTTCTCCCAGCTGATGAATTGTGACGCTCGAGTAAACAAATTTTCCTAATCTTTCTGTTCAAGCGCCATCTAC | 1.11 RPM ratio (pull-down/input)
GATGATTGTTCTCCCAGCTGATGAATTTGTGATATCGAGTAAACAAATTTTCCTAATCTTTCTGTTCAAGCGCCATCTAC | 1.32 RPM ratio (pull-down/input)
GATGATTGTTCTCCCAGCTGATGAATTCATACTCTCGAGTAAACAAATTTTCCTAATCTTTCTGTTCAAGCGCCATCTAC | 0.919 RPM ratio (pull-down/input)
GATGATTGTTCTCCCAGCTGATGAATTTTCTCATTCGAGTAAACAAATTTTCCTAATCTTTCTGTTCAAGCGCCATCTAC | 0.963 RPM ratio (pull-down/input)
GATGATTGTTCTCCCAGCTGATGAATTAAAGTTTTCGAGTAAACAAATTTTCCTAATCTTTCTGTTCAAGCGCCATCTAC | 1.28 RPM ratio (pull-down/input)
GATGATTGTTCTCCCAGCTGATGAATTGACTATCTCGAGTAAACAAATTTTCCTAATCTTTCTGTTCAAGCGCCATCTAC | 1.1 RPM ratio (pull-down/input)

Sequence | binding signal
GATGATTGTTCTCCCAGCTGATGAATTACTCATATCGAGTAAACAAATTTTCCTAATCTTTCTGTTCAAGCGCCATCTAC | 1.17 RPM ratio (pull-down/input)
GATGATTGTTCTCCCAGCTGATGAATTCGAACTATCGAGTAAACAAATTTTCCTAATCTTTCTGTTCAAGCGCCATCTAC | 1.02 RPM ratio (pull-down/input)
GATGATTGTTCTCCCAGCTGATGAATTTTCGCAGTCGAGTAAACAAATTTTCCTAATCTTTCTGTTCAAGCGCCATCTAC | 0.974 RPM ratio (pull-down/input)
GATGATTGTTCTCCCAGCTGATGAATTACTACTCTCGAGTAAACAAATTTTCCTAATCTTTCTGTTCAAGCGCCATCTAC | 1.04 RPM ratio (pull-down/input)
GATGATTGTTCTCCCAGCTGATGAATTCTGCGACTCGAGTAAACAAATTTTCCTAATCTTTCTGTTCAAGCGCCATCTAC | 0.882 RPM ratio (pull-down/input)
GATGATTGTTCTCCCAGCTGATGAATTGTAAACGTCGAGTAAACAAATTTTCCTAATCTTTCTGTTCAAGCGCCATCTAC | 1.41 RPM ratio (pull-down/input)
GATGATTGTTCTCCCAGCTGATGAATTGCTTATATCGAGTAAACAAATTTTCCTAATCTTTCTGTTCAAGCGCCATCTAC | 1.34 RPM ratio (pull-down/input)
GATGATTGTTCTCCCAGCTGATGAATTGTGAATATCGAGTAAACAAATTTTCCTAATCTTTCTGTTCAAGCGCCATCTAC | 1.17 RPM ratio (pull-down/input)
GATGATTGTTCTCCCAGCTGATGAATTCACTTGCTCGAGTAAACAAATTTTCCTAATCTTTCTGTTCAAGCGCCATCTAC | 0.849 RPM ratio (pull-down/input)
GATGATTGTTCTCCCAGCTGATGAATTGAACTGTTCGAGTAAACAAATTTTCCTAATCTTTCTGTTCAAGCGCCATCTAC | 0.861 RPM ratio (pull-down/input)
GATGATTGTTCTCCCAGCTGATGAATTCCCAAGATCGAGTAAACAAATTTTCCTAATCTTTCTGTTCAAGCGCCATCTAC | 0.773 RPM ratio (pull-down/input)
GATGATTGTTCTCCCAGCTGATGAATTCGAGACTTCGAGTAAACAAATTTTCCTAATCTTTCTGTTCAAGCGCCATCTAC | 0.824 RPM ratio (pull-down/input)
GATGATTGTTCTCCCAGCTGATGAATTTCTGCATTCGAGTAAACAAATTTTCCTAATCTTTCTGTTCAAGCGCCATCTAC | 1.35 RPM ratio (pull-down/input)
GATGATTGTTCTCCCAGCTGATGAATTGCTGTGGTCGAGTAAACAAATTTTCCTAATCTTTCTGTTCAAGCGCCATCTAC | 1.07 RPM ratio (pull-down/input)
GATGATTGTTCTCCCAGCTGATGAATTAAGTCAGTCGAGTAAACAAATTTTCCTAATCTTTCTGTTCAAGCGCCATCTAC | 0.83 RPM ratio (pull-down/input)
GATGATTGTTCTCCCAGCTGATGAATTGATTTTATCGAGTAAACAAATTTTCCTAATCTTTCTGTTCAAGCGCCATCTAC | 1.22 RPM ratio (pull-down/input)
